Counter-ions that a name gives are not always drawn. The name of at least one read-out is uncertain.
Legend:
[1] = test system: bed bug (Cimex lectularius); experiment: Bed bug threshold assay (mouse bait, treated filter paper on acrylic rod bridges); type: in vivo; conditions: 90 μl isopropyl alcohol + 10 μl testing compound on filter paper; bed bugs crossing treated vs control; mouse as bait; 10 minutes
Procedure: Compounds and blends of the present invention were assayed for their ability to modify bed bug (Cimex lectularius) behavior using a bed bug threshold assay. Three interceptors were laid side by side and acrylic rods were stuck on to the sides with putty so that they went from interceptor to interceptor forming bridges. Paper towels sections of 6 inches by 2 inches were placed so that they hung off of the ends of the acrylic rods to form harborage for bed bugs. Next, 125 mm pieces of Whatman Filter paper treated either with the compound of interest (90 μl isopropyl alcohol+10 μl testing compound) or with control solution of 100 μl isopropyl alcohol were stuck to the top of the acrylic rods with the compound impregnated filter on one rod and control impregnated filter on the other. In the middle interceptor a mouse was placed as bait for the bed bugs. In either outside interceptors 10 bed bugs each were placed in holding dishes, allowed to equilibrate for 10 minutes then released on the harborage. Video footage at 1 second time intervals was obtained for 10 minutes then analyzed for bed bug movements. Repellency of any given compound or blend was calculated by counting how many bed bugs traversed the acrylic rods across either the treated or the control Whatman filter paper. Percent repellency was determined by comparing the number of bed bugs which crossed the treated Whatman filter paper to the number of bed bugs which crossed the control Whatman filter paper.

[2] = test system: bed bug (Cimex lectularius); experiment: Bed bug repellency assay (filter paper harborage, petri dish); type: in vivo; conditions: for % Repellency / Repellency Category: individual compounds; for % Repellency: 10 microliters compound + 90 microliters isopropyl alcohol on filter paper tent, 10 bed bugs, 5 minutes, vs control; for Repellency Category: category from % repellency; for Ind % Rep (percent repellency of the individual compound): values obtained in Example 1 for the individual compound of a blend
Procedure: Compounds and blends of the present invention were assayed for their ability to modify bed bug (Cimex lectularius) behavior using a bed bug repellency assay. This assay takes advantage of the bed bug's natural instinct to seek harborage. Two petri dishes were obtained and the inner areas of each were sanded down (leaving the perimeter smooth.) Talc was applied on the perimeter and on the inside walls of the petri dishes with a small paint brush to prevent bed bugs from escaping. A cut off top portion of a plastic cup was placed upside down in the center of one petri dish to create a holding arena for the bed bugs. A large plastic secondary container was gathered and a paper towel was laid down inside the bottom. The petri dish was then placed inside and ten bed bugs were placed inside the cut off portion of the cup.
Next, two pieces of filter paper were cut down the middle to yield 4 equally sized halves. Three pieces were placed inside a glass dish […] and the remaining piece was placed in a separate dish. All four pieces were folded down the middle to create a “tent” or “harborage” when laid such that the folded crease faced up. 100 microliters of isopropyl alcohol was pipetted into three pieces of filter paper (all housed in the first glass dish.) In a separate 4 ml vial, 90 microliters of isopropyl alcohol was combined and vortexed with 10 microliters of the compound or compound combination being tested. 100 microliters of this solution [comprising a total of […] of compound(s)] was pipetted onto the filter paper in the separate dish. All filter papers were then allowed to dry. Once dry, experiments were conducted first with two filter paper halves comprising only the isopropyl alcohol (control experiment) and then with the remaining filter paper halves [one with only isopropyl alcohol and one comprising the test compound(s).] Filter paper halves were placed on opposing sides of experimental petri dishes and bed bugs were allowed to move freely within the dishes by removal of the plastic cup top. Movement was allowed to continue for 5 minutes before the number bed bugs beneath each filter paper tent was recorded.

| Compound | % Repellency [1] [%] | % Repellency [2] [%] | Repellency Category [2] | Ind % Rep (percent repellency of the individual compound) [2] [%] |
| --- | --- | --- | --- | --- |
| O=C/C=C/c1ccccc1 [BBC001, trans-cinnamaldehyde] | 96 | 100 | Very Strong (compounds with a percent repellency value of 80-100% were categorized as very strong repellents) | – |
| CCc1ccc(O)cc1 [BBC003, 4-ethylphenol] | 95 | 100 | Very Strong (compounds with a percent repellency value of 80-100% were categorized as very strong repellents) | – |
| CCc1ncc(C)nc1CC [BBC007, 2,3-diethyl-5-methylpyrazine] | 100 | 100 | Very Strong (compounds with a percent repellency value of 80-100% were categorized as very strong repellents) | – |
| CCCC(O)CC(=O)OCC (centres unmarked) [BBC008, ethyl 3-hydroxyhexanoate] | 30 | 100 | Very Strong (compounds with a percent repellency value of 80-100% were categorized as very strong repellents) | – |
| CCCCC(=O)OCc1ccco1 [BBC009, furfuryl pentanoate] | 70 | 100 | Very Strong (compounds with a percent repellency value of 80-100% were categorized as very strong repellents) | – |
| O=COCC=Cc1ccccc1 [BBC010, cinnamyl formate] | 100 | 100 | Very Strong (compounds with a percent repellency value of 80-100% were categorized as very strong repellents) | – |
| COc1ccccc1O [BBC011, guaiacol] | 67 | 100 | Very Strong (compounds with a percent repellency value of 80-100% were categorized as very strong repellents) | – |
| CC(=O)c1ccc(C)o1 [BBC015, 2-acetyl-5-methyl furan] | 43 | 86 | Very Strong (compounds with a percent repellency value of 80-100% were categorized as very strong repellents) | – |
| CC/C=C\CCCCO [BBC017, cis-5-octen-1-ol] | 79 | 82 | Very Strong (compounds with a percent repellency value of 80-100% were categorized as very strong repellents) | – |
| Cc1nccnc1C [BBC018, 2,3-dimethylpyrazine] | 28 | 77 | Strong (Compounds with a percent repellency value of 60-80% were categorized as strong repellents) | 77 |
| CCCCCCC/C=C/C=O [BBC019, trans-2-decenal] | 100 | 72 | Strong (Compounds with a percent repellency value of 60-80% were categorized as strong repellents) | – |
| COC(=O)/C=C/c1ccccc1 [BBC022, methyl trans-cinnamate] | 34 | 70 | Strong (Compounds with a percent repellency value of 60-80% were categorized as strong repellents) | – |
| COC(=O)C=Cc1ccccc1 [BBC023, methyl cinnamate] | 100 | 68 | Strong (Compounds with a percent repellency value of 60-80% were categorized as strong repellents) | – |
| CC(=O)c1ccco1 [BBC024, 2-furyl methyl ketone] | – | 60 | Strong (Compounds with a percent repellency value of 60-80% were categorized as strong repellents) | 60 |
| CC1CCC(C(C)C)C(O)C1 (centres unmarked) [BBC025, menthol] | 89 | 60 | Strong (Compounds with a percent repellency value of 60-80% were categorized as strong repellents) | – |
| CCCCCCOC(=O)CCC [BBC026, hexyl butyrate] | – | 59 | Moderate (Compounds with a percent repellency value of 40-60% were categorized as moderate repellents) | – |
| Cc1cnc(C)c(C)n1 [BBC027, 2,3,5-trimethylpyrazine] | – | 59 | Moderate (Compounds with a percent repellency value of 40-60% were categorized as moderate repellents) | 59 |
| CCOC(=O)C=Cc1ccccc1 [BBC028, ethyl cinnamate] | 100 | 59 | Moderate (Compounds with a percent repellency value of 40-60% were categorized as moderate repellents) | – |
| C=CCOC(=O)C=Cc1ccccc1 [BBC030, allyl cinnamate] | 93 | 54 | Moderate (Compounds with a percent repellency value of 40-60% were categorized as moderate repellents) | – |
| O=CCc1ccccc1 [BBC031, phenylacetaldehyde] | – | 50 | Moderate (Compounds with a percent repellency value of 40-60% were categorized as moderate repellents) | 50 |

| Compound | % Repellency [1] [%] | % Repellency [2] [%] | Repellency Category [2] | Ind % Rep (percent repellency of the individual compound) [2] [%] |
| --- | --- | --- | --- | --- |
| Cc1ccc(C=O)o1 [BBC034, 5-methyl furfural] | – | 47 | Moderate (Compounds with a percent repellency value of 40-60% were categorized as moderate repellents) | 47 |
| CCOC(=O)c1ccco1 [BBC036, ethyl 2-furoate] | – | 41 | Moderate (Compounds with a percent repellency value of 40-60% were categorized as moderate repellents) | – |
| CCOC(=O)C(C)O (centres unmarked) [BBC040, ethyl lactate] | – | 37 | Mild (Compounds with a percent repellency value of 20-40% were categorized as mild repellents) | 37 |
| CC1OCCC1=O (centres unmarked) [BBC041, 2-methyltetrahydrofuran-3-one] | – | 37 | Mild (Compounds with a percent repellency value of 20-40% were categorized as mild repellents) | – |
| CCCCC=O [BBC043, valeraldehyde] | – | 33 | Mild (Compounds with a percent repellency value of 20-40% were categorized as mild repellents) | – |
| COc1cnccn1 [BBC047, 2-methoxypyrazine] | – | 22 | Mild (Compounds with a percent repellency value of 20-40% were categorized as mild repellents) | 22 |
| O=C(C=Cc1ccccc1)OCc1ccccc1 [BBC048, benzyl cinnamate] | – | 21 | Mild (Compounds with a percent repellency value of 20-40% were categorized as mild repellents) | – |
| COC(=O)CCC(C)=O [BBC049, methyl levulinate] | – | 20 | Mild (Compounds with a percent repellency value of 20-40% were categorized as mild repellents) | 20 |
| CCC(=O)OCCC(C)C [BBC051, isoamyl propionate] | – | – | – | 17 |
| C=CC(O)CC (centres unmarked) [BBC053, ethyl vinyl carbinol] | – | – | – | 14 |
| C=CCOC(=O)CCC [BBC056, allyl butyrate] | 19 | – | – | – |
| CCCCOC=O [BBC059, butyl formate] | – | – | – | 6 |
| O=C(C=Cc1ccccc1)OCCc1ccccc1 [BBC064, phenethyl cinnamate] | 26 | – | – | – |
| CCCC(C)=O [BBC065, 2-pentanone] | – | – | – | 0 |
| CCOC(=O)CC(C)=O [BBC066, ethyl acetoacetate] | – | – | – | 0 |
| COc1nccnc1C [BBC067, 2-methoxy-3-methylpyrazine] | – | – | – | 0 |
| CC(C)C(=O)OCC=Cc1ccccc1 [BBC068, cinnamyl isobutyrate] | 100 | – | – | – |
| CCC(=O)OCCc1ccccc1 [BBC079, phenethyl propionate] | 89 | – | – | – |
| O=Cc1ccccc1O [BBC080, salicylaldehyde] | 51 | – | – | – |
| CC(C)=CCC/C(C)=C/CO [Geraniol, reference compound] | 100 | – | – | – |
